Patent US11339184B2, “Antibacterial compounds, compositions thereof, and methods using same” (priority 2019, dated 2022)

Tests used:
[1] = system: S. aureus ATCC 12600 carrying H481Y mutation; assay type: cell-based
[2] = system: S. aureus ATCC 12600 carrying S486L mutation; assay type: cell-based

With `CO[C@H]1/C=C/O[C@@]2(C)Oc3c(C)c(O)c4c(O)c(c(/C=N/N5CCN(C)CC5)c(O)c4c3C2=O)NC(=O)/C(C)=C\C=C\[C@H](C)[C@H](O)[C@@H](C)[C@@H](O)[C@@H](C)[C@H](OC(C)=O)[C@@H]1C` [Rif, rifampicin] the “activity against the H481Y S. aureus strain” value [1] was “inactive” and the “activity against the S486L S. aureus strain” value [2] was “inactive”.
